Test results published in the supplement of paper PMC3334620.
In all, about 33,000 sequences were measured (“E-score (-0.5 to 0.5)”: median about -0.013, highest 2% from about 0.3 on). The list shows a part of the results.

molecular target: T1, Msn1 (UniProt P22148); experiment: PBM E-score (8-mer binding enrichment) (E-score (-0.5 to 0.5)); higher = stronger / more preferred TF binding; most listed sequences are background and not binding sites; conditions: protein concentration: 200 nM; construct: GST-full length
T1 sequence: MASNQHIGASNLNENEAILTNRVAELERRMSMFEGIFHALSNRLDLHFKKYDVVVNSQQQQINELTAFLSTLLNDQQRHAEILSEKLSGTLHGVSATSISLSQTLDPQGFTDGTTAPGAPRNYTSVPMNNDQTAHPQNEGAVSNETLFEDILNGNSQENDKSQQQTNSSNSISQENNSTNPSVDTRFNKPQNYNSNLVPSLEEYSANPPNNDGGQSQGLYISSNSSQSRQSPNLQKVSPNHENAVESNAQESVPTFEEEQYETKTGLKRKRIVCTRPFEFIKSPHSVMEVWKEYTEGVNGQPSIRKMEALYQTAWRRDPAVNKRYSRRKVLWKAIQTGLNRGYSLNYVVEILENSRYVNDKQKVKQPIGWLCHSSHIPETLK
How it was run: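 Each ungapped eight-base word and its reverse complement, pooled, received an E-score from the Universal PBM Analysis Suite. Underlying scans, normalised with masliner, recorded fluorescent anti-GST bound to GST-tagged yeast transcription factors. These were applied at about 100-200 nM to universal all-10-mer Agilent arrays double-stranded by primer extension.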

Sequence	PBM E-score
AAGGCATC	-0.248
GTGTAAAC	-0.119
ATGTATCG	0.113
ATCAGGTG	-0.0523
CTAGAGTC	-0.244
CGAGTGCG	0.0204
AGAGACTC	-0.0377
AACGTACT	0.136
TCCAATAA	0.182
GGTGTTGA	-0.0373
AAGGCAAT	-0.00686
AAGCCCAG	-0.224
ATAGCCTG	-0.188
GACTGCAA	-0.16
ACACATCC	0.0829
ACATAGAC	0.253
CGCCCCGC	0.0251
CAACCACA	0.043
AAAGGATT	-0.134
CTGACAAA	0.37
ATACTGGA	0.0328
AGCACCGA	0.102
AAAAGGCA	0.117
AAAGTGCT	-0.00618
GCACTCAA	-0.276

Sequence	PBM E-score
ACCCCGGA	-0.0352
TGTACACA	0.279
CCTGATTC	-0.158
ATTAAGAC	0.22
ATATCACG	-0.0452
CGCATAAA	0.0863
CATTAACG	0.229
AAGAATCA	0.0806
ACCTGGGC	-0.319
GGTTGAAC	-0.00854
CATTCAGA	0.00205
ATCCGCTA	-0.0643
ACACATGT	0.238
GCGTGTCC	0.431
CAATCCCG	0.117
GAAGCACA	0.0136
ATACCGTG	-0.138
ATTTCTAC	0.11
ACTACTTG	0.0825
GCACGTGA	-0.0822
AACTTAAC	0.211
CCCCGGGG	-0.188
GTATTCAA	0.0536
ACGGAGCG	0.0484
AACAGAAT	-0.0275

Sequence	PBM E-score
ATGCAGTA	0.147
ACTTTAAT	0.179
ACCGTCCC	-0.114
CTTCTAGA	0.00137
GAAAGAGA	-0.162
AACTTCCG	0.0902
ATCCGCTG	-0.02
AAGCTTTG	0.143
AAGATAGC	-0.0986
TCAGGTCA	-0.111
ATGTGAGC	-0.073
CGTCCCGC	0.0266
AACGTTCG	-0.0764
ACTCGTGA	-0.166
ATATTGGC	-0.0271
CACCTGCG	-0.0437
CCGGGTGA	-0.172
CTCGGCAG	0.0797
AAGTGCGT	-0.119
GCATAAAA	0.128
AAGCACCT	-0.035
GACATAAA	0.44
GTCCTGTA	0.238
GTATCCTA	-0.123
CACAGACG	-0.0835

Sequence	PBM E-score
CACCTCGG	-0.00555
TACATGAA	0.117
GGAACTCC	-0.101
ACTGGACT	0.105
AGTAGCTC	-0.124
ATATGCCG	0.0736
TAGTTTCA	0.123
GTAAATAA	0.235
GACAGTCA	-0.15
TACTTGCA	0.0278
ACGGTACG	0.00684
ACTTCTAA	0.0582
GCCCGTCC	-0.139
GTGGCATA	-0.0828
AGTCGAAA	0.0085
CCTACATA	-0.0806
GGGTCTGA	-0.19
AGGTTCTG	-0.0681
ACTGAGAG	-0.118
AGCGATTG	-0.0756
GAGAAGAA	-0.0583
TGCCAGAA	0.00991
GTACCCGA	-0.0726
CTCTCCGA	-0.0802
ACACTGCT	0.00953

Sequence	PBM E-score
CATTTTGG	0.115
GATACACA	-0.0615
AGAAATAG	-9e-05
CTAAATCA	-0.0127
CCGCGAAC	0.0353
AACAGTTA	0.0308
AGAGGAGC	-0.304
ACGCGCCG	-0.0147
AATCCATG	0.0111
ATCGTCCG	0.0902
AAATTCAT	-0.00598
CACCCGTA	-0.0199
ACTTCATG	0.103
CACCCTGG	-0.246
ACAGCCAC	-0.115
CCTCATGC	-0.179
CTCCCATA	-0.185
ATCTCTTG	-0.192
GAGGGAAA	-0.2
GCTACGCC	-0.314
AGGGCACT	-0.227
CCGTAACC	0.0588
ATTGCAGA	0.152
CCCAGACG	-0.186
CGGTCGTC	-0.237

Sequence	PBM E-score
ACCATGGT	-0.314
CCCCTTTA	-0.222
ACTCTGAG	-0.0558
GAGAACCA	-0.0324
ATACTCTC	-0.137
CCCCCACC	-0.401
CACGGGAA	-0.0568
ATACCCCC	-0.00214
CGGGAAAC	-0.0427
CCTAGGTA	-0.103
AGGCTCAG	-0.177
GGCGGAAA	-0.0622
CCAAATGG	0.169
AAGGCGTA	-0.18
CGGTTCGC	0.00341
GAGGATCA	-0.0851
CGAGCAGC	0.0174
AATTTAGT	0.193
AGATGGAA	-0.145
TGCGGCCA	0.0229
GTGGTTGA	-0.00485
ACGTAGGG	-0.17
GCTTCGAC	-0.0286
ATAGGCTG	0.0277
AGTCAGGG	-0.204

Sequence	PBM E-score
ACTATGTC	0.292
AGCCTTGC	-0.155
CAAGTGGA	0.0396
CCTGAGGA	0.111
AGCCGGAT	-0.0299
CGTACTAC	0.0017
AATCTGGT	0.0578
CACAACAA	0.0782
AAACTTTA	0.036
CGTAGAAA	0.0903
GAAACTTA	0.045
CAGTCGCC	-0.17
TGAACCCA	-0.025
AGTTTTTA	0.0974
AGATTCAT	-0.101
AGGAAGCA	-0.211
ACCCCTAC	-0.364
AATAGGTG	-0.0378
AGCCCTAT	-0.184
CTTACACC	-0.1
AAAAACAT	0.153
CTTGGACA	0.44
AAGTATTA	0.125
GACCAAAC	-0.0324
GCTCAGCA	-0.146

Sequence	PBM E-score
TAGTCCGA	0.21
ACACCCGC	0.0238
GACTTCGA	-0.0085
GCGAGTTA	0.0821
CAGCTTCG	-0.0245
GATTTAGA	0.0734
CGCAACCG	-0.0704
CACGTACA	0.281
AGTCCGCC	0.0819
ATAGTAAG	-0.0092
AGCGAGGC	-0.154
CGGGGTGA	-0.165
AAGCGTAC	-0.0935
AATCTATA	0.163
ATAGGATG	-0.0777
CGTAAATC	-0.0485
AGCCTACG	0.144
CATTGGAC	0.178
ACTGTGCA	-0.123
CCTTTTTA	-0.0333
CGAGGTTA	0.118
TGAGGCCA	-0.117
CGCCCTGC	-0.329
GAGGGAGA	-0.218
AAAACCTC	0.182

Sequence	PBM E-score
CAGTGCTC	-0.259
ATTAAGCA	-0.0173
AAGCTTAC	-0.113
TCGGTGAA	0.0999
TAACATGA	0.0502
TGAACGAA	-0.0529
CAAGTGAA	0.223
ATACACCC	0.0322
TAGAACGA	0.125
ACTCCGCC	-0.0537
ACTCACCC	-0.195
ACGACAGG	0.0905
AATATGTA	0.335
AGGTTCGC	-0.124
AGTCAGAG	-0.2
TAATCGCA	0.0856
AGCGTTGC	-0.00865
AAGAGAAG	0.0611
CAACGGCG	-0.018
AGTGTTGC	0.087
CATCCCTC	-0.141
ATCATTGG	-0.0397
GGAGTCCA	-0.171
TAATTAAA	0.0351
TAAATGCA	-0.0113

Sequence	PBM E-score
AGGTTCCA	-0.111
AGGCAGAT	-0.035
CCTCCAGA	-0.181
AATGCGGT	-0.218
GGACTGTA	-0.0567
CGGCAAAC	-0.0152
ACATCGCT	0.14
ACTCGGGG	-0.107
ACGAAGTA	-0.136
GCTCAGGA	0.081
AAAGTGTT	0.115
GGACCACA	-0.0418
CGTTTTAG	0.0391
CCTCTAGA	-0.0117
ATACTTGC	0.127
GCGAGTAC	0.19
CGTTGAAG	-0.115
AGTCAGCA	-0.153
ACAGGGGA	-0.151
TACGTGGA	-0.0535
CCTTGTCC	0.449
CTCTGCTC	-0.253
AGCTTAAT	-0.00074
GAATACTC	-0.00642
ATACGAGA	-0.212

Sequence	PBM E-score
ACGTGGGG	-0.0561
GACTGGGC	-0.142
GTCGATGA	-0.0803
CGATCTGC	-0.0831
GCGAGGTA	-0.00651
CCGAGGCC	-0.108
ATACTTCC	-0.0102
CAACTGTC	0.126
CTCCCGGC	0.00895
AAGTGGAT	-0.0864
AAACGTCT	0.24
CGTTGTCA	-0.023
AGGTCAGA	-0.0688
TTAGTCAA	-0.129
ATGCTCGG	-0.132
GATCTGTA	-0.0087
AGGTCATG	0.0174
GTATCTGA	0.14
AGGCTTTG	-0.111
CCGTGACA	0.164
CGGGTGGC	-0.294
ACCCTGCG	-0.0799
AAGTGCCT	-0.232
ATGTGTAC	0.248
AGCACTAC	-0.233

Sequence	PBM E-score
ATGAGCTG	-0.139
CAAGCAGA	0.165
ATAGCGCC	-0.117
ATTAGCTA	-0.086
CAACCGGC	0.0722
ATTCGCCC	-0.142
TGCCCAAA	-0.0979
AACCTAAC	-0.15
AAGGTGGG	-0.116
GGCATTTA	-0.103
CCAGATAA	0.0449
CCTGGTGC	-0.137
AAACGGAA	0.189
GCGGAGGA	-0.195
CCTATGGA	0.042
ACGCGTGG	0.00026
CAACTAAC	0.106
CCAGACGC	-0.193
CTCCTTGA	-0.216
AGTTGGAC	0.23
ACGAGTAT	-0.134
CATGTTGG	0.103
GGCAATCA	-0.00559
ACCAAGCT	0.176
CACCAGGG	-0.289

Sequence	PBM E-score
AAAAAATT	-6e-05
AGTCCCAG	0.0531
GGGCCGCA	-0.0501
CCGTTAAC	0.0702
CCTGTAGA	0.011
GCCATCTA	-0.154
AGAATAAG	0.0878
AGATCAAA	-0.0384
ATACCCTG	-0.0143
CTGAGTAA	-0.0248
ACTCCACG	-0.0977
ATAATAAC	0.0515
CTAAGCCA	-0.204
AAATGAAG	0.0377
ACAAACCA	0.177
AACGCGCA	0.0148
ACTGCTGA	-0.263
CTCATGTA	0.0182
GCAACGAC	-0.0993
AATCGAAA	-0.0506
AAAGCGGG	-0.0468
TATAGAGA	-0.048
CGCGACTC	-0.0614
CGTGACAC	0.178
AGCAGATG	-0.215

Sequence	PBM E-score
CCATTTCA	-0.106
ATACCAGC	-0.101
AGGTTGAT	-0.204
CGATTACG	-0.012
CGTATTCA	0.00724
ATATCGAC	0.165
ATTTGAAG	0.0099
GACCTACC	-0.0756
CAAGAGTA	0.0644
CCGACTCA	0.0468
AGTTTGTA	0.182
CGATCGGA	0.0488
GAGACCAC	-0.218
AGAAGAAA	0.0176
AATATAGC	0.0433
CGCGGGGC	-0.0612
GCTAGCAA	-0.0318
GAGTTCGA	0.0396
AATCGGGG	-0.223
